Experimental data as given in PubChem BioAssay AID1460 (National Center for Advancing Translational Sciences (NCATS), 2008).
In all, about 270,000 compounds went through this assay and about 5,800 (2.1%) were called active. This list was built around the results that the source calls inconclusive (neither active nor inactive); the mix of calls is not that of the screen. The call rests on the fitted dose curve; in most records, active means well fitted inhibition curve with a large enough effect; inconclusive means small, poorly fitted or top-dose-only effect; inactive means flat fitted curve, though single readings scatter. Potencies of inconclusive entries are doubtful fits and often do not repeat.

target: Microtubule-associated protein tau (Homo sapiens) (UniProt P10636); test: qHTS for Inhibitors of Tau Fibril Formation, Thioflavin T Binding; conditions: recombinant tau K18 P301L (four-repeat tau fragment), heparin-induced fibrillization, ThT fluorescence; series mostly up to 57.4 µM; activity, negative = inhibition: at the top concentration; further: nearly all actives have a fitted effect of over 55% in size
Chain of UniProt P10636 (P10636 whole entry, looked up, the tested form may be a part): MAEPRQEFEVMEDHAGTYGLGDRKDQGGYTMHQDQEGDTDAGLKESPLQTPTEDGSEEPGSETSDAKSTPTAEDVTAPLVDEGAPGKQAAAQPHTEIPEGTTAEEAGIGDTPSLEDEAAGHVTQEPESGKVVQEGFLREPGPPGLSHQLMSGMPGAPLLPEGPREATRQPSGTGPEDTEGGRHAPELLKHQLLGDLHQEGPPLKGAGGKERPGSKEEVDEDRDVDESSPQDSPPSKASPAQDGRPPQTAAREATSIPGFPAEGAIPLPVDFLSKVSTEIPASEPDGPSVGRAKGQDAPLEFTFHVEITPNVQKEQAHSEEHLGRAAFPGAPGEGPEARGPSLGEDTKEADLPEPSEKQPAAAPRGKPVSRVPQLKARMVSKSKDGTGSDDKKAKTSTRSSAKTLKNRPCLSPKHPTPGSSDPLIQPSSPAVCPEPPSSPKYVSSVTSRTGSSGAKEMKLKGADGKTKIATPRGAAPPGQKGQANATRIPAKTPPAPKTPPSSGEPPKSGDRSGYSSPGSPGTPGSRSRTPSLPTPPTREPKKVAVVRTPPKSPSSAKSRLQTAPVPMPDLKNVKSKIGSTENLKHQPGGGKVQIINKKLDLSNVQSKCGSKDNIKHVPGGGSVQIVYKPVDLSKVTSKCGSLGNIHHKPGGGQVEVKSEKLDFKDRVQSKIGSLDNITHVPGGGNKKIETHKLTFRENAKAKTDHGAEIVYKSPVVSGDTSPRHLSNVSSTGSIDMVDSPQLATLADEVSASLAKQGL
Outline: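 Tau K18 P301L fragment (15 uM unlabeled plus 0.24 uM Alexa 594-labeled) in 100 mM sodium acetate pH 7 with compound, fibrillization induced by 20 uM heparin for 6 hr at 37 C. Thioflavin T (30 uM) added, fluorescence read after 1 hr (ex 450, em 510 nm).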
On the % scale 0 is the no-effect control and ±100 the full control effect; potency means the concentration at half of the fitted maximal effect; tags describe the fitted curve by direction and shape.

SMILES	Potency	activity, negative = inhibition
CCOC(=O)c1c(N=CN(C)C)c2cc([N+](=O)[O-])cnc2n1C	inconclusive: 15.8 µM [inhibitor, partial curve]	–
CC(/C=C/c1ccccc1F)=N\NC(=O)c1ccccc1	inconclusive: 8.91 µM [inhibitor, partial curve]	–
Cc1oc2c(C)c3oc(=O)c(CC(=O)N4CCCCC4)c(C)c3cc2c1C	inconclusive: 28.2 µM [inhibitor, single point]	–
COc1ccc(-n2c(C)cc(C3=NNC(=NC4CC4)SC3)c2C)cc1	inconclusive: 22.4 µM [inhibitor, partial curve]	–
COc1ccc(S(=O)(=O)N(C)CC(=O)Nc2ccc3c(c2)OCO3)cc1OC	inconclusive: 15.8 µM [inhibitor, single point]	–
NS(=O)(=O)c1ccc(CCNCc2cc(Br)ccc2OCc2ccccc2F)cc1	–	inactive: -18%
CCn1c(C)nc([N+](=O)[O-])c1Sc1ccc(F)cc1	inconclusive: 39.8 µM [inhibitor, single point]	–
C#CCOCCOCCOCCNc1nc(N2CCN(C(=O)[C@H](CCC(=O)O)n3cc(C(N)[C@H](C)CC)nn3)CC2)nc(N2CCN(C(=O)[C@H](CCC(=O)O)n3cc(C(N)[C@H](C)CC)nn3)CC2)n1 (stereo partly drawn)	inconclusive: 0.224 µM [activator, single point]	–
CC1CCCC(NC2CCCCNC2=O)C1 (stereo not drawn)	–	inactive: -1.91%
CC(C)(C)c1nnc2sc(SCCN3C(=O)c4ccccc4C3=O)nn2c1=O	–	inactive: -9.56%
O=C(Oc1c(Br)cc([N+](=O)[O-])cc1Br)c1cccnc1	inconclusive: 28.2 µM [inhibitor, partial curve]	–
CCOc1ccc(C(=O)CCC(=O)NC(C)C(=O)OC)cc1 (stereo not drawn)	–	inactive: 7.82%
COc1ccc(C(=O)Nc2ccc3c(c2)nc2n3CCSC2)cc1	inconclusive: 1.78 µM [inhibitor, partial curve]	–
CN(c1ccccc1C(=O)O)S(=O)(=O)c1ccc2[nH]c(=O)oc2c1	–	inactive: -5.02%
COc1ccc(NC(=O)c2cccnc2NCCc2ccccc2)cc1	–	inactive: -8.99%
CC(C)CCn1c(Sc2nc3ccccc3s2)nc2c1c(=O)[nH]c(=O)n2C	inconclusive: 39.8 µM [inhibitor, single point]	–
CN(C)c1ccc(C(CNS(=O)(=O)c2ccc(Cl)cc2)N2CCOCC2)cc1 (stereo not drawn)	inconclusive: 31.6 µM [inhibitor, partial curve]	–
COc1cc(NC(=O)c2cc3nc(-c4ccccc4)cc(-c4ccccc4)n3n2)cc(OC)c1OC	inconclusive: 17.8 µM [inhibitor, partial curve]	–
Cc1ccc(O)c(C=Nc2cc(C)ccc2O)c1	inconclusive: 28.2 µM [inhibitor, single point]	–
CCS(=O)(=O)c1ncc(Cl)c(C(=O)NCc2ccc(OC)cc2)n1	inconclusive: 3.98 µM [inhibitor, full curve]	–
Cc1cc(C)cc(OCC(=O)O/N=C(\N)Cc2ccc([N+](=O)[O-])cc2)c1	inconclusive: 10 µM [inhibitor, partial curve]	–
Nc1n[nH]c2c1C1(CCCCC1)Cc1ccccc1-2	inconclusive: 39.8 µM [inhibitor, single point]	–

SMILES	Potency	activity, negative = inhibition
C(=N\Nc1nc2ccccc2[nH]1)/c1c[nH]c2ccccc12	active: 12.6 µM	–
Nc1cc(S(=O)(=O)c2ccc(O)c(N)c2)ccc1O	inconclusive: 31.6 µM [inhibitor, partial curve, poor fit]	–
CC1CCCC(C)N1C(=O)CN1CCN(c2nc(-c3ccc(F)cc3)cs2)CC1 (stereo not drawn)	inconclusive: 15.8 µM [inhibitor, partial curve]	–
CCOC(=O)N1CCN(Cc2ccc(O)c3ncccc23)CC1	inconclusive: 5.62 µM [inhibitor, partial curve]	–
CC1=NN(c2ccc(C(=O)O)c(N)c2)C(=O)C1	inconclusive: 20 µM [inhibitor, partial curve]	–
CSc1ccc(CCNC(=O)c2ccc3c(Cl)c4c(nc3c2)CCCC4)cc1	inconclusive: 3.55 µM [inhibitor, full curve]	–
CC(C)C1N=C2c3ccccc3N=C(SCC(=O)c3ccc(O)c(O)c3)N2C1=O (stereo not drawn)	inconclusive: 20 µM [inhibitor, partial curve]	–
CCn1c(O)c(/C=N/N=C2CCCC2)c2ccc(C3=NNC(=O)CC3)cc21	inconclusive: 8.91 µM [inhibitor, partial curve]	–
C=Cc1ccc(Cn2c(C(=O)O)c(CNC3CCCCC3)c3ccc(OC)cc32)cc1	inconclusive: 35.5 µM [inhibitor, single point]	–
CCOC(=O)C1=C(Nc2ccccc2)CC(C)(O)C(C(=O)OCC)C1c1ccc(Cl)cc1 (stereo not drawn)	inconclusive: 39.8 µM [inhibitor, single point]	–
COC(=O)C1=C(C(=O)OC)N2C=CC=CC2(C)C(C(=O)OC)=C1C(=O)OC (stereo not drawn)	–	inactive: 2.9%
CCCCc1ccc(NC(=O)N[C@@H](C)C(=O)O)cc1	–	inactive: -2.47%
O=C1CN(C(=O)CNC(=O)c2cccc(Cl)c2)c2ccccc2N1	–	inactive: -7.02%
NNc1nc(-c2ccccc2Cl)nc2sc3c(c12)CCCC3	inconclusive: 31.6 µM [inhibitor, single point]	–
COc1ccc(OC)c(CNC(=O)CN2N=C(c3ccc(Cl)cc3)CCC2=O)c1	–	inactive: 6.06%
CCc1nc(-c2ccc(-c3ccc(OC)cc3)nc2OC)no1	inconclusive: 1.41 µM [inhibitor, partial curve]	–
COc1cc(NC(=O)c2ccc(N)nc2)cc(C(=O)Nc2cccc(C(F)(F)F)c2)c1	inconclusive: 39.8 µM [activator, single point]	–
CCc1ccc(/C=C2/C(=O)N(CC)C(=S)N2C)s1	inconclusive: 12.6 µM [inhibitor, partial curve]	–
COc1cc(NC(=O)C(=O)NNC(=O)C2CCCCC2)c(OC)cc1Cl	–	inactive: -10.6%
COC(=O)N/N=C/c1cn(CCCOc2ccc(C)cc2)c2ccccc12	inconclusive: 1.26 µM [inhibitor, full curve]	–
O=C(N/N=C/C(Br)=C/c1ccccc1)C1CC1	inconclusive: 39.8 µM [inhibitor, single point]	–
